Results reported in the supplement of paper PMC4967469.

Key:
Assay in all cases: Viability of human cancer cell lines after 72 h of drug (GDSC screen)
YM201636 = compound: Nc1ccc(C(=O)Nc2cccc(-c3nc(N4CCOCC4)c4oc5ncccc5c4n3)c2)cn1 [YM201636]; conditions: top dose 5.12 µM; top dose inferred
Procedure: (§1)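 Human cancer cell lines in 384-well plates, medium with 10% serum, drug for 72 h over a 256-fold dose range (nine 2-fold or five 4-fold steps up to the top dose). Adherent lines were fixed and stained with the nucleic acid dye Syto60, suspension lines read with resazurin; signal relative to control wells, capped at 0 and 100%. One two-parameter sigmoid per drug and line, fitted in a mixed model over all curves with the slope shared within a line.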

EX-527 = compound: NC(=O)C1CCCc2c1[nH]c1ccc(Cl)cc21 [EX-527]; conditions: top dose 20 µM
Procedure: as §1

AS601245 = compound: N#CC(c1ccnc(NCCc2cccnc2)n1)c1nc2ccccc2s1 [AS601245]; conditions: top dose 8 µM; top dose inferred
Procedure: as §1

AZD6244 = compound: Cn1cnc2c(F)c(Nc3ccc(Br)cc3Cl)c(C(=O)NOCCO)cc21 [AZD6244]; conditions: top dose 4 µM; screen: GDSC drug entry 1498; top dose inferred
Procedure: as §1

Cell Line | AUC (YM201636) | IC50 (YM201636) [µM] | AUC (EX-527) | IC50 (EX-527) [µM] | AUC (AS601245) | IC50 (AS601245) [µM] | AUC (AZD6244) | IC50 (AZD6244) [µM]
CHL-1 (melanoma, adherent) | 0.768 | 1.82 | 0.894 | > 20 | 0.862 | 6.22 | 0.807 | 1.91
CHSA0011 (chondrosarcoma, adherent) | 0.957 | > 5.12 | 0.98 | > 20 | 0.927 | > 8 | 0.764 | 2.04
CHSA0108 (chondrosarcoma, adherent) | 0.971 | > 5.12 | 0.983 | > 20 | 0.983 | > 8 | 0.852 | 3.87
CHSA8926 (chondrosarcoma, adherent) | 0.933 | > 5.12 | 0.98 | > 20 | 0.979 | > 8 | 0.909 | > 4
COLO-205 (large intestine, suspension) | 0.954 | > 5.12 | 0.984 | > 20 | 0.836 | 5.21 | 0.562 | 0.368
COLO-678 (large intestine, semi-adherent) | 0.967 | > 5.12 | 0.985 | > 20 | 0.902 | > 8 | 0.752 | 1.68
COLO-679 (melanoma, adherent) | 0.95 | > 5.12 | 0.983 | > 20 | 0.849 | 7.13 | 0.249 | 0.0428
COLO-680N (oesophagus, adherent) | 0.983 | > 5.12 | 0.986 | > 20 | 0.891 | > 8 | 0.901 | > 4
COLO-783 (melanoma, adherent) | 0.991 | > 5.12 | 0.975 | > 20 | 0.991 | > 8 | 0.693 | 0.847
COLO-792 (melanoma, adherent) | 0.984 | > 5.12 | 0.988 | > 20 | 0.988 | > 8 | 0.592 | 0.445
COR-L23 (large cell lung carcinoma, adherent) | 0.909 | > 5.12 | 0.977 | > 20 | 0.839 | 5.27 | 0.915 | > 4
COR-L105 (lung adenocarcinoma, adherent) | 0.796 | 3.03 | 0.982 | > 20 | 0.694 | 1.99 | 0.788 | 2.19
CP50-MEL-B (melanoma, adherent) | 0.829 | 3.13 | 0.988 | > 20 | 0.845 | 5.66 | 0.295 | 0.0668
CS1 (bone, adherent) | 0.848 | 4.49 | 0.974 | > 20 | 0.823 | 5.47 | 0.9 | > 4
Ca9-22 (head and neck, adherent) | 0.921 | > 5.12 | 0.988 | > 20 | 0.857 | 5.77 | 0.796 | 1.71
Ca-Ski (cervix, adherent) | 0.762 | 2.04 | 0.98 | > 20 | 0.906 | > 8 | 0.87 | > 4
CaR-1 (large intestine, adherent) | 0.941 | > 5.12 | 0.97 | > 20 | 0.913 | > 8 | 0.911 | > 4
Calu-6 (lung adenocarcinoma, adherent) | 0.928 | > 5.12 | 0.967 | > 20 | 0.798 | 4.47 | 0.719 | 1.15
Capan-2 (pancreas, adherent) | 0.97 | > 5.12 | 0.985 | > 20 | 0.819 | 5.85 | 0.638 | 0.655
ChaGo-K-1 (non-small cell lung carcinoma, adherent) | 0.888 | > 5.12 | 0.985 | > 20 | 0.805 | 4.82 | 0.972 | > 4
DAN-G (pancreas, adherent) | 0.954 | > 5.12 | 0.985 | > 20 | 0.992 | > 8 | 0.879 | 3.23
DBTRG-05MG (glioma, adherent) | 0.945 | > 5.12 | 0.973 | > 20 | 0.886 | > 8 | 0.763 | 1.68
DK-MG (glioma, adherent) | 0.884 | > 5.12 | 0.971 | > 20 | 0.965 | > 8 | 0.766 | 2.24
DMS-53 (small cell lung carcinoma, adherent) | 0.988 | > 5.12 | 0.988 | > 20 | 0.909 | > 8 | 0.987 | > 4
DMS-273 (small cell lung carcinoma, adherent) | 0.761 | 1.91 | 0.983 | > 20 | 0.672 | 1.56 | 0.983 | > 4
DOK (head and neck, adherent) | 0.975 | > 5.12 | 0.976 | > 20 | 0.876 | > 8 | 0.331 | 0.0662

By IC50 is meant the dose at which the fit gives 50% viability; a fit beyond the top or the lowest dose is shown as a bound at that dose. For AUC the same curve is integrated over the 256-fold range of doses and scaled to a fraction: 1 means no effect, lower means more sensitive. For some of these results: Any top dose called inferred comes from the curve model; the source does not state it. For some of these results: An entry number marks a drug with two screens in the source, which often give different values.
